Experimental data: PubChem BioAssay AID463173 (ICCB-Longwood Screening Facility, Harvard Medical School, 2010)
Screen size: about 52,000 compounds; about 4,300 (8.3%) were called active. Rule as the data show it: active = survival mostly below about 52% (no sharp cut-off); inactive = mostly above about 56%. The list shows a part of the results.

System: DeltatarO mutant
Experiment: growth inhibition of S. aureus wild type versus tarO mutant, primary screen, teichoic acid synthesis inhibitors, RN4220, OD600 (AID 463173)
Conditions: OD600, 18 h, stronger effect = lower value, screened at 18.75 µg/mL (by protocol)

SMILES | survival
CCCN1CCN(CCCNC(=O)c2c(C)nn(-c3ccc(F)cc3)c2-n2cccc2)CC1 | inactive: 88%
CN1C(=O)/C(=C/c2ccco2)SC1=Nc1cccc(C(=O)O)c1 | inactive: 69%
CC(C)(C)OC(=O)N1CCC2(CC1)C(C#N)=C(N)OC1=C2C(=O)CCC1 | inactive: 80%
Cc1ccc(OCC(=O)Nc2ccc(-c3nc4ccccc4o3)cc2)c(C)c1 | inactive: 63%
CC(C)c1ccc(-c2nnn(CC(=O)OC3CCCCC3)n2)cc1 | inactive: 87%
COCCCNC(=O)c1ccc2nc(CCc3ccccc3)oc2c1 | inactive: 81%
CCOC(=O)c1c(NC(=O)c2ccc(C)c(C)c2)sc2c1CCCCC2 | active: 2%
Cn1cnc(S(=O)(=O)N2CCCC(C(=O)Nc3ccc(OC(F)(F)F)cc3)C2)c1 (stereo not drawn) | active: 25%
CCc1ccc(C(=O)NC2=NC(c3ccccc3F)CC(=O)N2)cc1 (stereo not drawn) | inactive: 177%
CCC(=O)N1CCc2cc(S(=O)(=O)NC(C(=O)Nc3cc(OC)cc(OC)c3)C(C)C)ccc21 (stereo not drawn) | inactive: 86%
N#C/C(=C/c1ccc(-c2ccc(Br)cc2)o1)C(=O)NC1CCCCC1 | inactive: 71%
CCc1ccc(N2C(=O)CSC23C(=O)N(Cc2cccc(F)c2)c2ccccc23)cc1 (stereo not drawn) | inactive: 124%
CCOC(=O)c1cccc(NC(=O)c2cc(-c3ccc(Cl)s3)nc3ccccc23)c1 | inactive: 125%
CN=CC1=C(O)C(C(=O)OC)C(C)(C)CC1=O (stereo not drawn) | inactive: 74%
Cc1ccc(C(=O)N2C(C)CCCC2C)c(Cl)c1 (stereo not drawn) | inactive: 70%
O=C(NCCc1ccccc1)c1ccc(CSc2nc3ccncc3n2Cc2ccccc2)cc1 | inactive: 73%
CCN(CC)CCCNC(=O)c1cn(C)c2ccc(S(=O)(=O)N3CCOCC3)cc2c1=O | inactive: 85%
COc1ccc(NC(=O)Cn2ncc3c([nH]c4ccccc43)c2=O)cc1Cl | inactive: 94%
Cc1ccc(NC(=O)CSc2nc(C)cc(C)c2C(=O)Nc2cccc(C)c2)cc1 | inactive: 49%
COc1cc(OC)cc(C(=O)Nc2ccc(S(=O)(=O)Nc3onc(C)c3C)cc2)c1 | inactive: 75%

SMILES | survival
Cc1ccc(-n2c3c(cc(-c4nc(-c5ccc(Cl)cc5)cs4)c2=O)C(=O)CC(C)(C)C3)cc1 | inactive: 79%
CCOC(=O)c1c(C)[nH]c(CCC(=O)Nc2cc(C)cc(C)c2)c1C | inactive: 113%
O=C(Cn1nc(C(F)(F)F)c2c1CCCC2)Nc1ccc(Cl)cc1 | inactive: 54%
COc1cccc(CNC(=O)CN2C(=O)CCn3nc(-c4cn(C)c5ccccc45)cc32)c1OC | inactive: 76%
COc1ccc(N2CC(C(=O)NC3=NCCS3)CC2=O)cc1 (stereo not drawn) | inactive: 100%
COc1ccc(OC)c(CNC(=O)c2cccc(NC(=O)N3CCSc4ncccc43)c2)c1 | inactive: 86%
CC(C)Sc1ncc(Cl)c(C(=O)Nc2ccc(S(=O)(=O)N3CCCCC3C)cc2)n1 (stereo not drawn) | inactive: 94%
O=c1c2oc3ccccc3c2n(Cc2cccc(C(F)(F)F)c2)c(=O)n1Cc1ccc2c(c1)OCO2 | inactive: 108%
CCC(C(=O)NCc1ccccc1)n1ncn2c(cc3occc32)c1=O (stereo not drawn) | inactive: 91%
CCC(=O)N1CCN(c2ccc(NC(=O)c3ccccc3)cc2)CC1 | inactive: 85%
CCOC(=O)c1ccc2ncc(C(=O)OCC)c(Nc3ccc(C)c(Br)c3)c2c1 | active: 39%
Cc1cccc(C(=O)Nc2cccc(C(=O)OCc3cc(=O)n4ccsc4n3)c2)c1 | inactive: 66%
Cc1cc(C(F)F)n2nc(C(=O)Nc3ccc(C)c(C)c3)nc2n1 | inactive: 99%
COc1ccc(Br)cc1CNC(=O)CN1C(=O)CSc2ccc(S(=O)(=O)N3CCOCC3)cc21 | inactive: 75%
Cc1ccc(NC(=O)c2cc3c(=O)n(Cc4cccnc4)ccc3nc2C)cc1F | inactive: 92%
Cn1c(CNc2nc(-c3ccccc3)cs2)nnc1SCC(=O)c1ccccc1 | active: 51%
COc1ccc(OC(C)C(=O)NCc2nc(-c3ccc(Cl)cc3)no2)cc1 (stereo not drawn) | inactive: 75%
CN(C)c1ccc(/C=C(/NC(=O)c2ccccc2)C(N)=O)cc1 | inactive: 86%
c1cc(N2CCOCC2)ccc1Nc1nc2nonc2nc1Nc1ccc(N2CCOCC2)cc1 | inactive: 100%
Cc1ccc(NC(=O)Cn2cc(S(=O)(=O)N3CCCC3)c(S(=O)(=O)N3CCCC3)c2)c(C)c1 | inactive: 94%

SMILES | survival
O=C(O)CN1C(=O)c2ccc(Oc3ccc4c(c3)C(=O)N(CC(=O)O)C4=O)cc2C1=O | inactive: 90%
O=C(NCCc1ccc(Cl)cc1)c1cccn1-c1nnc(N2CCCC2)s1 | inactive: 124%
C=CCNC(=O)CN1C(=O)COc2ccccc21 | inactive: 100%
O=C(c1cccnc1Nc1cccc(Cl)c1)N1CCCCC1 | inactive: 108%
COc1ccc(C(=O)c2cn(CC(=O)Nc3ccc4c(c3)OCO4)c3ccc(OC)cc3c2=O)cc1 | inactive: 76%
CCOc1ccccc1N(C)C(=O)NCc1noc2ccccc12 | inactive: 108%
CCOc1ccccc1NS(=O)(=O)c1ccc2oc(=O)c3ncn(C)c3c2c1 | inactive: 77%
O=C(N/N=C/c1ccc(O)cc1)Nc1cccc2nsnc12 | inactive: 92%
Cc1cccc(OCC(=O)Nc2ccc3c(c2)N(C)C(=O)c2ccccc2S3)c1 | inactive: 73%
CCCn1ccc2c(OCC(=O)Nc3ccc(F)cc3F)cccc2c1=O | inactive: 102%
Cc1cccc(NC(=O)CSc2nc3c([nH]c4ccccc43)c(=O)n2-c2ccc(F)cc2)c1C | inactive: 49%
Cc1ccc(C(=O)N/C(=C\c2cn(S(=O)(=O)N(C)C)c3ccccc23)C(=O)NCCCn2ccnc2)cc1 | inactive: 80%
COc1ccc(NC(=O)c2ccco2)cc1NC(=O)COc1ccccc1Cl | inactive: 71%
O=C(Cc1cccs1)NC1CCCCCC1 | inactive: 92%
COc1ccc(C(=O)N2CCC(C(=O)Nc3ccccc3Cl)CC2)cc1 | inactive: 78%
CCc1ccccc1NC(=O)c1cc(S(=O)(=O)NC2CCCC2)ccc1F | inactive: 89%
COC(=O)CSc1nc(N2CCOCC2)nc(N2CCOCC2)n1 | inactive: 104%
CCOc1ccc(NC(=O)CC2C(=O)N(c3cccc(C)c3)C(=O)N2Cc2ccco2)cc1 (stereo not drawn) | inactive: 83%
